B1: Caulobacter ParB omega fusion; a variant is named by its letters at X, in order, B8GW30 (parent)
chain: MESVVVGEPGMSEGRRGLGRGLSALLGEVDAAPAQAPGEQLGGSREAPIEILQRNPDQPRRTFREEDLEDLSNSIREKGVLQPILVRPSPDTAGEYQIVAGERAWRAAQRAGLKTVPIMVRELDDLAVLEIGIIENVQRADLNVLEEALSYKVLMEKFERTQENIAQTIGKSXSHVANXMRLLXLPDEVQSYLVSGELTAXHARAIAAAADPVALAKQIIEGGLSVRETEALARKAPNLSAGKSKGGRPPRVKDTDTQALESDLSSVLGLDVSIDHRGSTGTLTITYATLEQLDDLCNRLTRGI

The full ranking holds about 81,000 sequences; the median of “one-hybrid fitness for binding parS DNA” is about -0.17, and the highest 2% start at about 0.51. The list shows a part of the results.

The variants in the experiment derive from B1. Put plainly: one-hybrid fitness for binding parS DNA (scaled: cognate 1, non-cognate 0); higher = stronger binding. Conditions: with parS DNA site. In short, it runs like this: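 The reporter was HIS3, with the binding site 19 bp from the promoter, in E. coli USO used for bacterial one-hybrid selection of Caulobacter ParB libraries with four specificity codons randomised. Growth was on M9 lacking histidine, with 0.1 mM IPTG and 5 mM 3-AT, for 48 hours at 37°C. Illumina sequencing covered plasmids before and after selection; three replicate libraries were pooled and variants with under 10 reads dropped. A fitness score is the log change in variant-to-wild-type read ratio, rescaled to the cognate and non-cognate references.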
Consider CNVF, for which the “one-hybrid fitness for binding parS DNA” value is at most 0.2.
To IDYT belongs at most 0.2; to ITDC, at most 0.2.
For WANG, the “one-hybrid fitness for binding parS DNA” value is at most 0.2.
Take VGTS: the “one-hybrid fitness for binding parS DNA” value was at most 0.2.
Turning to RRMP, the “one-hybrid fitness for binding parS DNA” value is at most 0.2.
As to KMLN, the “one-hybrid fitness for binding parS DNA” value was at most 0.2.
In the case of AQFA, the “one-hybrid fitness for binding parS DNA” value was at most 0.2.
For the variant LMFC, the “one-hybrid fitness for binding parS DNA” value is at most 0.2.
In the case of DAWG, the “one-hybrid fitness for binding parS DNA” value is at most 0.2.
To VRLL belongs at most 0.2; to IDQY, at most 0.2; to IVTG, at most 0.2.
The result for LEWW reads at most 0.2.
Consider TGCS, for which the “one-hybrid fitness for binding parS DNA” value is at most 0.2.
To DASV belongs at most 0.2; to IILP, at most 0.2.
The result for EVTN reads at most 0.2.
To RKEE belongs at most 0.2; to MTYV, at most 0.2; to LMRT, at most 0.2.
Regarding DCGG, the “one-hybrid fitness for binding parS DNA” value was at most 0.2.
As for RSST, the “one-hybrid fitness for binding parS DNA” value is 0.883.
For RNES, the “one-hybrid fitness for binding parS DNA” value is 0.776.
To AAFL belongs at most 0.2; to TEYL, at most 0.2.
To GWIS belongs at most 0.2; to GLRS, at most 0.2; to PATW, at most 0.2.
For the variant MDTR, the “one-hybrid fitness for binding parS DNA” value was at most 0.2.
To GHRC belongs at most 0.2; to QRKY, at most 0.2.
On to YGCA, for which the “one-hybrid fitness for binding parS DNA” value is at most 0.2.
As for RNLE, the “one-hybrid fitness for binding parS DNA” value is at most 0.2.
Turning to PISI, the “one-hybrid fitness for binding parS DNA” value was at most 0.2.
As for AASA, the “one-hybrid fitness for binding parS DNA” value was at most 0.2.
To DKES belongs at most 0.2.
On to ITMD, for which the “one-hybrid fitness for binding parS DNA” value was at most 0.2.
As for RSLG, the “one-hybrid fitness for binding parS DNA” value was 0.987.
The result for QRCC reads at most 0.2.
Turning to IKQR, the “one-hybrid fitness for binding parS DNA” value was at most 0.2.
As to NRTQ, the “one-hybrid fitness for binding parS DNA” value is at most 0.2.
To VAFT belongs at most 0.2.
Consider QQTY, for which the “one-hybrid fitness for binding parS DNA” value was at most 0.2.
The result for APAL reads at most 0.2; that for HVNE, at most 0.2.
The result for NTMS reads at most 0.2; that for DNNT, at most 0.2.
To YHNT belongs at most 0.2.
For AACS, the “one-hybrid fitness for binding parS DNA” value was at most 0.2.
GTKS: the “one-hybrid fitness for binding parS DNA” value is at most 0.2.
As for CNGF, the “one-hybrid fitness for binding parS DNA” value stood at 0.228.
The result for SDHM reads at most 0.2.
Turning to RHAF, the “one-hybrid fitness for binding parS DNA” value is at most 0.2.
Consider STYR, for which the “one-hybrid fitness for binding parS DNA” value is at most 0.2.
To HWWR belongs at most 0.2; to GMVS, at most 0.2.
As to QGLM, the “one-hybrid fitness for binding parS DNA” value was at most 0.2.
As for MYNR, the “one-hybrid fitness for binding parS DNA” value was at most 0.2.
To HTQY belongs at most 0.2; to WSWR, at most 0.2.
The result for GALT reads at most 0.2; that for PDTL, at most 0.2.
To DIQQ belongs at most 0.2; to PLMM, at most 0.2.
Take NNDS: the “one-hybrid fitness for binding parS DNA” value is at most 0.2.
As to QHIS, the “one-hybrid fitness for binding parS DNA” value was at most 0.2.
For the variant LQPA, the “one-hybrid fitness for binding parS DNA” value is at most 0.2.
As to APLR, the “one-hybrid fitness for binding parS DNA” value was at most 0.2.
GQEK: the “one-hybrid fitness for binding parS DNA” value was at most 0.2.
For LHLT, the “one-hybrid fitness for binding parS DNA” value is at most 0.2.
MMMY: the “one-hybrid fitness for binding parS DNA” value is at most 0.2.
As for VPNL, the “one-hybrid fitness for binding parS DNA” value is at most 0.2.
To TCES belongs at most 0.2; to NMQG, at most 0.2; to RWKA, 0.574.
